Over roughly 33,000 sequences, “E-score (-0.5 to 0.5)” has its median near -0.041; the highest 2% begin near 0.37. The list shows a part of the results.
molecular target: T1, Ecm22 (UniProt Q05958); experiment: PBM E-score (8-mer binding enrichment) (E-score (-0.5 to 0.5)); higher = stronger / more preferred TF binding; most listed sequences are background and not binding sites; conditions: protein concentration: 200 nM; construct: GST-full length
T1 sequence: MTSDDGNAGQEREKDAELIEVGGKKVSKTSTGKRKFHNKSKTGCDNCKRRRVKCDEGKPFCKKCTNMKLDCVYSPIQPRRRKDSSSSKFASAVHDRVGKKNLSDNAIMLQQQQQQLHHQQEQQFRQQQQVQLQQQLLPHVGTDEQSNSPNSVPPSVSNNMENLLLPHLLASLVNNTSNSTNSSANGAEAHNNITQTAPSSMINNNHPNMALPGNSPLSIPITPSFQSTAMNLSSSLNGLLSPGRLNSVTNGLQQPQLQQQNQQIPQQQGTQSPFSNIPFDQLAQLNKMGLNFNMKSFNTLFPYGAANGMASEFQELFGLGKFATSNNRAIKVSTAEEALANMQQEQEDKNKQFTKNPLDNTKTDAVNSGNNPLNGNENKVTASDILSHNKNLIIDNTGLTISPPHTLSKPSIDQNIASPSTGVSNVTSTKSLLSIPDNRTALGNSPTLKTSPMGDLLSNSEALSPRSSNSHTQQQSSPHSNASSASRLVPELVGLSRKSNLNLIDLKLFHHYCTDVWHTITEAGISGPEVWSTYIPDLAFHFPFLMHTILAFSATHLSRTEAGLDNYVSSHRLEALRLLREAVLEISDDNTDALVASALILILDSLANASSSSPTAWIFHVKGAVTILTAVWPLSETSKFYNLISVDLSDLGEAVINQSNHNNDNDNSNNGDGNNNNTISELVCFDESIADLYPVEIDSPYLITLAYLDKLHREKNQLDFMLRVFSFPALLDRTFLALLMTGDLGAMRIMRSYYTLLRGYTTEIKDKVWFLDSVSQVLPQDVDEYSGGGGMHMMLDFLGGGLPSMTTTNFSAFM
Outline: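 PURExpress in vitro transcription/translation supplied GST-tagged yeast transcription factors, either full-length or DNA-binding domain. Applied at about 100-200 nM to universal all-10-mer Agilent arrays double-stranded by primer extension, the bound protein was detected with fluorescent anti-GST. E-scores, modified Wilcoxon-Mann-Whitney statistics, were given by the Universal PBM Analysis Suite to ungapped eight-base words pooled with their reverse complements after masliner normalisation.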

| Sequence | PBM E-score |
| --- | --- |
| ACCTTATA | -0.14 |
| ACCTAGAA | -0.183 |
| AATTGGCC | -0.154 |
| ATTTATAC | 0.401 |
| GCCTTCCA | -0.298 |
| CAAATTGG | -0.0354 |
| AAATGGGA | -0.226 |
| AGACGGCC | -0.223 |
| GCGAAAAA | 0.125 |
| CACTTTGG | -0.0484 |
| TCGATAAA | 0.138 |
| CATCTAAG | -0.146 |
| AGACCTAC | -0.0432 |
| GCCTTCAC | -0.115 |
| AGGGGTTA | -0.237 |
| GGCTTGAA | -0.248 |
| CCAACCCG | 0.0982 |
| TAATCGAA | 0.134 |
| CCTAGCTC | -0.116 |
| AACATGCA | -0.0597 |
| AGACCCTG | -0.229 |
| GGTTTTAA | 0.0221 |

| Sequence | PBM E-score |
| --- | --- |
| CCACTGCA | -0.32 |
| CAAGATGG | -0.194 |
| GTGCTTTA | 0.0162 |
| CACACATG | -0.168 |
| CCTTTGCC | -0.276 |
| AATTCGTA | 0.441 |
| GAGAGCGA | 0.306 |
| GGTGTGAA | -0.108 |
| CGTTGCAG | 0.0991 |
| CCTAATAG | -0.169 |
| ACATTAGA | 0.00657 |
| ACACCGTG | -0.08 |
| AATGGCGA | -0.0708 |
| CCGGTTGC | 0.0911 |
| CGAGACCG | 0.228 |
| GGCAATAC | 0.0369 |
| GCCTTCGA | -0.0479 |
| AAAAGATA | 0.00952 |
| CCATCCCG | -0.189 |
| CTTATCCA | -0.189 |
| ACCATGGC | 0.0147 |
| TATCTCAA | 0.0752 |

| Sequence | PBM E-score |
| --- | --- |
| AACCGATA | 0.312 |
| AACTCCTG | -0.151 |
| GATTTGCA | -0.0667 |
| CTTCATAC | -0.00642 |
| ATCAACAC | 0.0216 |
| ACATCTAG | -0.0359 |
| TCTAGACA | -0.134 |
| CTGAAAGA | -0.141 |
| CCGTGCGA | 0.176 |
| AGTGGAAA | -0.189 |
| AAGCAGAC | -0.125 |
| ACGTAAGA | 0.105 |
| TAATTCAA | 0.165 |
| GACTCGAA | -0.121 |
| ATCGGGCC | -0.118 |
| CTGTCGCC | -0.197 |
| GCGAGTCC | -0.0135 |
| CGCCTGGA | -0.216 |
| GAGCTCTA | -0.226 |
| CTTGAGCC | -0.271 |
| AATCAACA | 0.0785 |
| ATAGGCAT | -0.0281 |

— the supplement of paper PMC3334620
